Reference: the supplement of paper PMC12632987
Whole data set: some 1,800 sequences, median “median log2 fold change of GCK-ALFA target abundance (FLAG IP / Myc IP barcode read proportion)” near 0.14, cut for the lowest 2% near -0.84. This is one part of the list.

T1: TRAF2, Q12933
T1 chain: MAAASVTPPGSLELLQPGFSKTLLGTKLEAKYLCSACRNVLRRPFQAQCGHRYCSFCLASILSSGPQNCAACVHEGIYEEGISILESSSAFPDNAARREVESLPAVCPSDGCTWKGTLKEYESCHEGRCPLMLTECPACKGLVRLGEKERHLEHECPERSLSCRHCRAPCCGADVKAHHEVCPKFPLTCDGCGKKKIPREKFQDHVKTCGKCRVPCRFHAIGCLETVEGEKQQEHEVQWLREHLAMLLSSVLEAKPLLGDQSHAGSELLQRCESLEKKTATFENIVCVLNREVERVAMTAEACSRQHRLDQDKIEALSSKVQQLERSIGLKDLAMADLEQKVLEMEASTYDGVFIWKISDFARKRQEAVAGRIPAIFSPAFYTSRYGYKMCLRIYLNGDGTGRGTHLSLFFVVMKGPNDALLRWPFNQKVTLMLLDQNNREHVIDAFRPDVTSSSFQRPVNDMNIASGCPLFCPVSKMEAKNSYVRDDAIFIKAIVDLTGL

B1: traf2_out_16_104_1408 (protein)
chain: SAARDAEFDRIIEELEAIADELGRIANELYELMKTASPEDKEKLSDALVEASELRRRALEAAEEARRAREEGGDLAAARERLARLTAEAAAVKAKAEALK
B2: traf2_out_20_3_2122 (protein)
chain: EELEKELERELERAIRLLKEAAEISDPETAKRLEELIERLKKSRELSPEDRLVVVSEIRREVLRLAEEAARAGKTELAAILEAAADELNRAMQLLLEIAE
B3: traf2_out_13_95_1169 (protein)
chain: SEEKTKKEREIASEAFDKREAVMTDFAAKVRALIDDPEVAALMDEVVRRMNRFTLEHAAAEIKARHPEKAEEIEALAAEALAKLAAIDKETTAELNKIEE
B4: traf2_out_18_167_1879 (protein)
chain: SAELEEEYQRATDRLVELSEIRRWLLLALEALEESREAARAVLREALARLPDSEVLREALRVAEEESPEALRAFLEEKAEELQREANEAYKKLEALRKEM
B5: traf2_out_9_17_2608 (protein)
chain: TPEEEERRRDILEAAREVLERLVEEGYITEEEAEEILKKVEELLEEGKSPEEVLAEFIGMIASTLLTKSDLPLSEINKVVGRAYRELRERLAAAEARRAA
B6: traf2_out_20_3_2204 (protein)
chain: SELEEELEKRLDAAEKLLKEAQKLADPETAKTLDALIARLKASRELSYDDRLVTLSAIRAEVLALAQAAKAAGNAELAAVLEAAADELQKAMNLVYKIIE
B7: traf2_out_3_89_2283 (protein)
chain: SPELEKKIAELRKNFDTHIKGLERSTRRVAEEMLKEGASVETIKGLIDSSATALLESFEILLKEKGLPEEVRKELLAEIKKKLDATAKKLKKEVEEAAKK
B8: traf2_out_11_79_928 (protein)
chain: SEKRKKLKEELEKAKKLVEELIKKMKAGKITPEERKKMLEEILKLLQRAAQLALELGLSDVLVEISKAKRYVLLSENGDLEELEKALKYIEEALKLLEEE
B9: traf2_out_11_169_803 (protein)
chain: KEAEKNRKINDHALKLNDEAKEKLKEFALELAKKEGLDVEEIKKIFEENKNSSLSYVASKLIEYYLSLGNEDSAKKILEKYEELKDEINKKSSEFIKELE
B10: traf2_out_17_162_1573 (protein)
chain: EELERRLEELEKRLKELEKELKKFKEELPNLPKMSKEELTDKLVEVSEKKREARRLAEELRRLGEKLGEERVEKLVKRAEEIAEELNKIANEIYKEIEKK
B11: traf2_out_3_89_2294 (protein)
chain: SMEQEKKLEEMRKRMEAYLRGFERSARWVARQMVADGMSLDTIRGVLEAARTALLEVLRESAEEAGLSPEQIEELVEEARERLERIVEEVVEEARREREA
B12: traf2_out_1_33_1031 (protein)
chain: SAEIERKSMALLRRTTGEMYRLLRETEEKMEKLLEEGKPAEEIEKLAEETRKKIKEIADKAIAELKALGDDLTADILESEKTDILKRLDEIKKEILAKLK
B13: traf2_out_20_3_2121 (protein)
chain: EELEKELKKELEKALKLLKEAAKKSDKETAKVLKELIKELKASEKLSPSDRLVVVSEIRRKVLELAEKARKAGDEELAKILEEAADELNKAAGLLLKIEE
B14: traf2_out_20_38_2023 (protein)
chain: SMEEEEEEKLKELVEVANKAYDEYSAKFAKWKAEGKTVEEIAEEVKKEIRELLSKAGLEEEAEILIEDVDLALKSPNAERLLIRTLARAVALVKQKELQK
B15: traf2_out_18_167_1843 (protein)
chain: EEEIEEKKRELSDKLVDLSAVRREALRALQALDTDPSRVPAELAALREEAAKVPELQPLVAAAEAALAAGDRAALRAELERLIEEAQKLMQEAYDKYEEL
B16: traf2_out_18_167_1820 (protein)
chain: SAETKARIEKLTDELVKVSEIRRLALAAIEAAETDPAAYPAALAATIEALNKVPEFKPKAKELKALPEAEKKAKLEEIAEEAQKRANELYKEREKLKKEA
B17: traf2_out_17_178_1730 (protein)
chain: TKEEILKEISEKADELLDVNRAAMAELRAIAEAEGVLTPELAARLDAVARTANLYALEEVADELIARSASADRIAALRAETTARMRELNKEIQELVEKLE
B18: traf2_out_20_38_2016 (protein)
chain: SMEEEEKKKLEELIKKAQEAYDEAEARIAALQAAGKSVEEIAAEAKKEITELLNAAGLEEEAKILVEDVDRVLDSPDALRLIARILARAKTLVFQKELQK
B19: traf2_out_11_169_847 (protein)
chain: EQEEKNRQIIDKALELEDKAKEELKKHALALAREAGLDVAEVEAIFEKHKGKSLSAIAAALIRWFREQGKEEAAAAVEAKYEELKEEINKKMTEFLKELE

Molecular target: T1, TRAF2, Q12933
Experiment: median log2 fold change of GCK-ALFA target abundance (FLAG IP / Myc IP barcode read proportion) (log2 ratio); each designed protein is fused to an ALFA-tag nanobody in HEK293 cells to bring the named protein to FLAG-tagged glucokinase (GCK); Myc marks an untargeted standard; higher = target protein stabilised (more abundant)
Conditions: target protein: 3xFLAG-MCP-GCK-ALFA reporter; HEK293 landing pad (RPLP)
Outline: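 HEK293 landing-pad cells received a recombined binder library fused to the ALFA nanobody and were induced with 2 μg mL^−1 doxycycline, then transfected with a plasmid encoding a FLAG-tagged target and a Myc-tagged standard. Lysates were collected after 48 h for anti-FLAG and anti-Myc immunoprecipitation, and the circular RNA barcodes were reverse transcribed, amplified and sequenced. Target abundance for each binder is the median log2 ratio of FLAG to Myc barcode read proportions. Barcodes had to reach a proportion of at least 10^−7 in both replicates, each binder needed at least 3 barcodes per replicate, a pseudocount of 10^−6 was applied, and the two replicates were pooled.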

Binder | median log2 fold change
B1 | 0.363
B2 | 0.142
B3 | 0.276
B4 | 0.141
B5 | 0.27
B6 | -0.756
B7 | 0.324
B8 | 0.348
B9 | 0.164
B10 | -0.118
B11 | -0.433
B12 | 0.233
B13 | 0.277
B14 | -1.38
B15 | 0.099
B16 | 0.309
B17 | 0.203
B18 | 0.349
B19 | -0.218
